In the antibiotic and cytotoxicity screens of Wong et al. (2023):
Some of the results follow.

Tested on: HepG2
Test: cytotoxicity call (relative viability < 0.9)
Conditions: 10 µM

Structure (SMILES)	cytotoxicity call
C[C@@H]1CCCCO[C@H](CN(C)C(=O)Cc2ccccc2)[C@H](C)CN([C@@H](C)CO)C(=O)c2cc(NC(=O)Nc3ccc(F)cc3)ccc2O1	inactive
C[C@H]1CN([C@@H](C)CO)C(=O)c2cccc(NS(=O)(=O)c3ccc(F)cc3)c2O[C@H]1CN(C)S(=O)(=O)c1cccs1	inactive
COc1ccc2c3c(n(c2c1)C)[C@@H](CO)N(Cc1cc(cc(c1)OC)OC)C[C@]13CCN(CC1)C(=O)Nc1cccc(c1)F	inactive
C[C@@H]1CN([C@H](C)CO)C(=O)c2cc(NC(=O)C3CCCCC3)ccc2O[C@@H](C)CCCCO[C@@H]1CN(C)C(=O)Nc1ccccc1	inactive
COc1ccc(S(=O)(=O)N(C)C[C@@H]2OCCCC[C@H](C)Oc3ccc(NC(=O)NC4CCCCC4)cc3C(=O)N([C@@H](C)CO)C[C@H]2C)cc1	inactive
C[C@H]1CN([C@@H](C)CO)C(=O)c2cc(-c3cccnc3)cnc2O[C@@H]1CN(C)Cc1ccc(-c2ccccc2)cc1	inactive
COc1ccc(CNC(=O)C[C@H]2CC[C@H]3[C@H](COc4ccc(NC(=O)C5CC5)cc4C(=O)N3C)O2)cc1	inactive
CN1CCCC1CCOC(C)(c1ccccc1)c1ccc(Cl)cc1.O=C(O)C=CC(=O)O (stereo not given)	active
O=C(NO)c1ccc(C(=O)N/N=C/[C@H](O)[C@@H](O)[C@@H](O)[C@H](O)CO)cc1	inactive
C[C@@H]1CCCCO[C@@H](CN(C)Cc2ccc(Cl)c(Cl)c2)[C@H](C)CN([C@@H](C)CO)C(=O)c2cc(NS(=O)(=O)c3cn(C)cn3)ccc2O1	inactive

Tested on: S. aureus RN4220
Test: growth inhibition call (relative growth <= 0.2)
Conditions: 50 µM

Structure (SMILES)	growth inhibition call
O=c1nc[nH]c2c1ncn2[C@H]1CC[C@@H](CO)O1	inactive
C[C@@H]1CN([C@@H](C)CO)C(=O)c2cc(NS(=O)(=O)c3cn(C)cn3)ccc2O[C@@H]1CN(C)S(=O)(=O)c1ccccc1	inactive
CC(C)NC(=O)Nc1cccc2c1O[C@H](CN(C)S(=O)(=O)c1cn(C)cn1)[C@H](C)CN([C@H](C)CO)C2=O	inactive
Cc1noc(C)c1NC(=O)Nc1ccc2c(c1)CC(=O)N([C@@H](C)CO)C[C@@H](C)[C@@H](CN(C)C(=O)Nc1ccc(C(F)(F)F)cc1)O2	inactive
C[C@@H]1CCCCO[C@@H](CN(C)Cc2ccc(C(F)(F)F)cc2)[C@@H](C)CN([C@H](C)CO)C(=O)c2cc(NS(=O)(=O)c3cn(C)cn3)ccc2O1	inactive
O=C1OCCN1N=Cc1ccc([N+](=O)[O-])o1	active
Cc1noc(C)c1NC(=O)Nc1ccc2c(c1)C(=O)N([C@@H](C)CO)C[C@H](C)[C@H](CN(C)C(=O)Nc1ccccc1)OCCCC[C@H](C)O2	inactive
C[C@H]1CN([C@@H](C)CO)C(=O)Cc2cc(NS(=O)(=O)c3cn(C)cn3)ccc2O[C@@H]1CN(C)Cc1ccccc1	inactive
O=C(O)c1n[nH]c2c1CCC2	inactive
C(=N\Cc1cccnc1)/c1c2ccccc2cc2ccccc12	inactive
COc1ccc(C(=O)Nc2ccc(CN3C(=O)[C@]4(O[C@H](CC(=O)N5Cc6ccccc6C[C@H]5CO)[C@@H]([Si](C)(C)c5ccc(OC)cc5)[C@@H]4C)c4ccccc43)cc2)cc1	inactive
C[C@H](CO)N1C[C@H](C)[C@H](CN(C)C(=O)C2CCCCC2)OCCCC[C@H](C)Oc2ccc(NC(=O)Nc3ccc(F)cc3)cc2C1=O	inactive
C[C@@H]1CN([C@H](C)CO)C(=O)c2cc(NC(=O)Nc3ccc(C(F)(F)F)cc3)ccc2O[C@@H](C)CCCCO[C@@H]1CN(C)C(=O)C1CCCCC1	inactive
C[C@H](CO)N1C[C@H](C)[C@@H](CN(C)Cc2ccc3c(c2)OCO3)OCCCC[C@H](C)Oc2ccc(NC(=O)Nc3ccc(F)cc3)cc2C1=O	inactive
COc1ccc(CN(C)C[C@H]2Oc3ccc(NS(=O)(=O)c4cn(C)cn4)cc3CC(=O)N([C@H](C)CO)C[C@@H]2C)cc1	inactive
COc1cccc(C(=O)Nc2ccc3c(c2)C(=O)N(C)[C@H]2CC[C@H](CC(=O)NCC4CC4)O[C@H]2CO3)c1	inactive
Cc1noc(C)c1NC(=O)Nc1ccc2c(c1)CC(=O)N([C@@H](C)CO)C[C@H](C)[C@@H](CN(C)CC1CC1)O2	inactive
CN1C(=O)c2cc(NC(=O)C3CCC3)ccc2OC[C@@H]2O[C@H](CC(=O)NCCc3ccncc3)CC[C@@H]21	inactive
C=CCC[C@@H](Cc1ccc(F)cc1)C(=O)OC[C@@H](Cc1c[nH]c2ccccc12)NC(=O)[C@@H](CC=C)CC(=O)N(CCO)Cc1ccccc1	inactive
C[C@@H]1CN([C@@H](C)CO)C(=O)c2cccc(NC(=O)Nc3ccc(C(F)(F)F)cc3)c2O[C@H]1CN(C)Cc1ccc(C(=O)O)cc1	inactive

Structure (SMILES)	growth inhibition call
O=C(C[C@@H]1C[C@H]2c3cc(NS(=O)(=O)c4ccc(F)cc4)ccc3O[C@H]2[C@@H](CO)O1)NCc1ccccc1F	inactive
N[C@@H](Cc1cc(I)c(Oc2ccc(O)c(I)c2)c(I)c1)C(=O)O	inactive
CCN1CCN(c2ccc(Nc3cc(N(C)C(=O)Nc4c(Cl)c(OC)cc(OC)c4Cl)ncn3)cc2)CC1	inactive
COCCN1C(=O)C[C@@H]2[C@@H]1CCN2S(=O)(=O)c1cn(C)cn1	inactive
C[C@@H]1CN([C@H](C)CO)C(=O)c2cc(NC(=O)Nc3ccc(C(F)(F)F)cc3)ccc2O[C@@H](C)CCCCO[C@H]1CN(C)Cc1ccc(C(=O)O)cc1	inactive
COc1ccc([C@H]([C@H](Cc2ccccc2)OC(C)=O)N(CC#C[C@@H](O[Si](c2ccccc2)(c2ccccc2)C(C)(C)C)c2ccccc2)[C@@H](Cc2ccccc2)C(OC)OC)cc1	inactive
O=C(O)[C@H](O)c1ccc(F)cc1	inactive
CCCN(C)C[C@@H]1OCCCC[C@H](C)Oc2ccc(NC(=O)Cc3ccccc3)cc2C(=O)N([C@@H](C)CO)C[C@@H]1C	inactive
Nc1ccn([C@@H]2O[C@H](CO)[C@H](O)[C@@H]2O)c(=O)n1	inactive
C[C@@H]1CN([C@H](C)CO)C(=O)c2cccc(NS(=O)(=O)c3ccc(F)cc3)c2O[C@H]1CN(C)C(=O)Nc1cccc2ccccc12	inactive
C[C@@H]1CCCCO[C@H](CN(C)C(=O)Cc2ccccc2)[C@H](C)CN([C@@H](C)CO)C(=O)c2cc(NC(=O)Nc3ccc(F)cc3)ccc2O1	inactive
C[C@H]1CN([C@@H](C)CO)C(=O)c2cccc(NS(=O)(=O)c3ccc(F)cc3)c2O[C@H]1CN(C)S(=O)(=O)c1cccs1	inactive
COc1ccc2c3c(n(c2c1)C)[C@@H](CO)N(Cc1cc(cc(c1)OC)OC)C[C@]13CCN(CC1)C(=O)Nc1cccc(c1)F	inactive
C[C@@H]1CN([C@H](C)CO)C(=O)c2cc(NC(=O)C3CCCCC3)ccc2O[C@@H](C)CCCCO[C@@H]1CN(C)C(=O)Nc1ccccc1	inactive
COc1ccc(S(=O)(=O)N(C)C[C@@H]2OCCCC[C@H](C)Oc3ccc(NC(=O)NC4CCCCC4)cc3C(=O)N([C@@H](C)CO)C[C@H]2C)cc1	inactive
C[C@H]1CN([C@@H](C)CO)C(=O)c2cc(-c3cccnc3)cnc2O[C@@H]1CN(C)Cc1ccc(-c2ccccc2)cc1	inactive
COc1ccc(CNC(=O)C[C@H]2CC[C@H]3[C@H](COc4ccc(NC(=O)C5CC5)cc4C(=O)N3C)O2)cc1	inactive
CN1CCCC1CCOC(C)(c1ccccc1)c1ccc(Cl)cc1.O=C(O)C=CC(=O)O (stereo not given)	inactive
O=C(NO)c1ccc(C(=O)N/N=C/[C@H](O)[C@@H](O)[C@@H](O)[C@H](O)CO)cc1	inactive
C[C@@H]1CCCCO[C@@H](CN(C)Cc2ccc(Cl)c(Cl)c2)[C@H](C)CN([C@@H](C)CO)C(=O)c2cc(NS(=O)(=O)c3cn(C)cn3)ccc2O1	inactive
